According to the supplement of paper PMC10126150:
Sequences with one replicate were seen in a single cluster, so their values are uncertain.

tested on: ATP; experiment: switch fluorescence ratio, 500 uM ATP over buffer (Cy3 cluster intensity, sum of 5 cycles each) (fold (ratio)); higher = stronger signal-on switching upon ATP binding; sequences stand for … in TCGTCGGCAGCGTCAGATGTGTATAAGAGACAGTTTTTTTTTTTTTTTTTTTTTTTTT…TC; details: aptamer strand: ATP DNA aptamer (quencher-CACCTGGGGGAGTATTGCGGAGGAAGG + anchor), 100 nM annealed; ATP concentration: 500 uM; one replicate
How it was run: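 The quencher-labelled ATP aptamer, at 100 nM, was annealed to Cy3-labelled switching-strand clusters on a modified Illumina MiSeq flow-cell. The clusters were imaged in selection buffer, then after 15 min with 500 uM ATP at 22 °C, and this buffer/ATP cycle ran five times with NaOH stripping and re-annealing between runs. Per-cluster fluorescence ratios, summed target-cycle over summed buffer-cycle Cy3 intensity, were averaged per switch-domain sequence. Clusters outside 100-1000 RFU were excluded.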
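Also: ATP exposure 15 min at 22 °C before imaging.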

Row | Sequence | switch fluorescence ratio
1 | TTGCGGAACC | 0.983
2 | TGAGGCGCGA | 1.04
3 | GGTGAGGATC | 0.976
4 | CGAACACGAT | 1.06
5 | ACCTCCTAAG | 1.15
6 | GGCTTCACCG | 1.12
7 | GCGGATCTAG | 0.996
8 | AGAGTGCGAA | 1.03
9 | AGGTCGATAC | 1.97
10 | CAAAATCAAT | 0.966
11 | TGCCGGTTTC | 0.997
12 | GACAGAAAGT | 0.993
13 | AATTTCACCT | 1.12
14 | AGCAAAAGTA | 1.04
15 | AACTCAGCCC | 1.05
16 | ACAATCTCAT | 1.02
17 | GGTCTGAGGC | 1.01
18 | TTGTGTAGAC | 1.02
19 | TTGAGGTCTA | 0.983
20 | TTATTGCGTG | 1.04
21 | GGGGGACAAA | 0.983
22 | AAAGCATCTG | 0.995
23 | GTGGGACTCT | 1.02
24 | CCATCCTAAG | 1.02
25 | TACGCCTTAG | 0.989
26 | TGGGGCGCGT | 1.02

Row | Sequence | switch fluorescence ratio
27 | CCACTATCTG | 0.984
28 | CGCACACGTT | 0.966
29 | GGGGTTTGT | 0.995
30 | CTTGGTTATG | 0.995
31 | CGTAGCTCAG | 1.1
32 | CAGCCATAGC | 0.981
33 | GGGTTCCTAA | 1.04
34 | ATATCGGTTG | 0.991
35 | GCGAACGAGG | 1.02
36 | TTCTTTTGCG | 0.981
37 | TATTTTATAC | 1.04
38 | GCATCGGAAT | 1.05
39 | ACCCTTTGAG | 1.02
40 | GAGTCTGTCA | 0.983
41 | ACCGACAATG | 1.08
42 | GAAACTGAAG | 0.991
43 | TATAGGCGAT | 0.994
44 | GACCTAGTTA | 0.966
45 | TGTCATTACT | 1.08
46 | GAAGAAATTC | 1.1
47 | AATGGGTACG | 0.996
48 | ATCAAGCAT | 1.03
49 | AAATCCAAG | 1.01
50 | ATCAATGTCA | 1.02
51 | TATCTGCTCC | 1.11
52 | GGTCGATTTA | 1

Row | Sequence | switch fluorescence ratio
53 | AAGAGCTGAT | 0.947
54 | CGTGAGTGGA | 1.06
55 | GTAATCTTTG | 0.995
56 | GGTGGACT | 1.03
57 | GTTCGACACG | 0.986
58 | CAGATCGGAA | 1.08
59 | TTGACAACA | 1.05
60 | TGAGTGACAG | 1.03
61 | GTGACACAGT | 1.02
62 | GACACCAAGT | 1.02
63 | CCTGTGACTA | 1.12
64 | TATCTTCACG | 1.03
65 | GTTTTTGTTG | 1.02
66 | GTTGTTTTCT | 1
67 | CTGTCGGGC | 1.02
68 | TAGTACTCCC | 2.08
69 | ATACTTCATA | 1.02
70 | ATCTACTTTG | 1.06
71 | CGAACTATCT | 0.985
72 | GTGCAATGCG | 1.85
73 | TCTTCGTCAT | 1.28
74 | CGGCGGTTTC | 0.997
75 | AATTGTTTTG | 0.978
76 | AGTGAAGCTC | 0.987
77 | GGAAGTTGCA | 1.03
78 | TCATTTAGTG | 0.963

Row | Sequence | switch fluorescence ratio
79 | GCCTTCTAAT | 1.02
80 | GATTAGTAGG | 0.953
81 | AAGGTGCTCG | 1.02
82 | CTCGTCCTAG | 1.04
83 | ACGTGAGAGT | 1.08
84 | GGCCGAAGAC | 1.21
85 | GGGTTGATAA | 0.99
86 | GTTTAGGTAG | 1.03
87 | TTTGCTCTTT | 0.953
88 | GGATGGGTGA | 0.953
89 | ATAGATGGG | 0.966
90 | ACAAATTGAA | 1.03
91 | AATCTAGTC | 0.962
92 | GTGGTTCTAA | 0.988
93 | TTTGCGGAAG | 1.03
94 | GATCGCCTGA | 0.984
95 | AGCACTAGTG | 1.04
96 | TTCGGCAAGC | 1.3
97 | CTGGGATGTA | 1.01
98 | GCATGTTACC | 1.1
99 | CTGTAGGGTA | 0.998
100 | CGCGGAGCG | 0.984
101 | GGTTCGACCG | 1.02
102 | CTAGTATTAT | 0.958
103 | CTCATAGAAA | 0.98
104 | TATCCGAATT | 1.01

Row | Sequence | switch fluorescence ratio
105 | CTTAGCTTAG | 1.01
106 | AAAGAGATAC | 1.12
107 | AAATGGGATC | 1.01
108 | TGCATCGTAA | 1.05
109 | TAACGATGTG | 1.01
110 | TTTTCGCGTA | 0.996
111 | AGCTAGCCAA | 1.02
112 | ACGCATAGGA | 1.21
113 | CAAGGTACAA | 1.05
114 | ACTCAAAAAC | 1.81
115 | CGATGGGAAG | 0.992
116 | GCGACGAGCG | 0.993
117 | TTCCTCATCA | 1.03
118 | AATTGATTG | 0.993
119 | CAATGGTA | 1.05
120 | CAACGACAAA | 1.06
121 | TGAGTTGGCA | 1.02
122 | CCAGGGGTGT | 1.42
123 | AAGATCTTTG | 0.98
124 | TAAATCGGAC | 1.09
125 | AGACCTGTGC | 1.11
126 | CTCGGCACGC | 2.89
127 | CAGCTATAAA | 1.01
128 | GGCTCCATGT | 0.998
129 | TAAGAAAGGC | 0.98
130 | GGGTTAAC | 0.955

Row | Sequence | switch fluorescence ratio
131 | GATATTTACC | 1.07
132 | ATTCGTAGT | 0.987
133 | ATGAGCCCTA | 0.995
134 | TACCTTAAAC | 1.08
135 | GCGGTTTTCG | 0.974
136 | GGGTAACCAC | 1.06
137 | GGCCGGGTTT | 0.997
138 | AAAGTCGTAG | 0.951
139 | ATACCTTCCG | 2.84
140 | GGATTGGTCA | 0.967
141 | TGACGGGTGC | 1.12
142 | CGTATTAATG | 1.07
143 | AGGAATACGG | 1.29
144 | AACATCTATT | 1.01
145 | ACTTTCTTC | 0.993
146 | GCAGCGCCCA | 1.02
147 | GTTATATGA | 1.01
148 | CCATATGGAA | 1.05
149 | CTAGCATAGA | 1.02
150 | ACTTCGGGGT | 1.07
151 | AGTACTTTTG | 1.03
152 | TATATAGGGC | 0.989
153 | TGACCAGCTG | 1
154 | CTTGTAACCA | 0.979
155 | TATAGGGCGC | 1.04
156 | TATGTGGACC | 1.03

Row | Sequence | switch fluorescence ratio
157 | CCTGTCTGAC | 1.11
158 | AATCACCCCC | 1.83
159 | CTCGTGTGGT | 0.978
160 | TGCATTCTTA | 1.01
161 | AGCTATGCCA | 0.949
162 | GATTCTCGGA | 1.01
163 | CCTCAGAATG | 1.34
164 | ATTTGAGTGA | 0.984
165 | CCGGCTATA | 2.26
166 | AAGGCTCATT | 0.98
167 | AGGCAATGGA | 1.04
168 | GCACTGTGTT | 1.04
169 | CTTGGATCTG | 0.987
170 | AACACGCAT | 1.32
171 | GAAATGCGCT | 0.996
172 | TAGTTCACTC | 1.02
173 | TCCGGGCCGA | 0.998
174 | TGATCTTGAC | 1.01
175 | TGTGACACGC | 1.02
176 | CCGTACCCAT | 1.2
177 | TTGGATGGT | 0.976
178 | TGGAGACATT | 0.963
179 | GTTTGAATGG | 1.01
180 | TTGTTAATGC | 1.22
181 | ATCCTCTTCC | 2.16
182 | CAATAACTTT | 1.01

Row | Sequence | switch fluorescence ratio
183 | CGACTACCGG | 1.03
184 | TACCTACCGA | 1.56
185 | CCTCTCGTAT | 2.55
186 | TGGAAGGAGT | 0.979
187 | GGGAGTGTAG | 1.03
188 | ATCCCAAATT | 0.97
189 | GTAATTGAAT | 1.01
190 | ACTGTTGACG | 1.04
191 | GAGAAAAAGA | 1
192 | TTTCGCTGCA | 1.02
193 | ATACAAAGTC | 1.05
194 | GTGATGGTTA | 1.02
195 | CGTGCTCTAG | 1.01
196 | CAGTACGTCC | 1.03
197 | ATGCTCGGCA | 1.02
198 | AGTACGGATG | 0.983
199 | ATTTAATACC | 1.02
200 | CGGTCGTTCG | 1.03
201 | CTTTGAGTCA | 0.981
